Laboratory results as given in the RNAGym collection of RNA variant scans (doi:10.7554/elife.90254).
Read counts are not given, so values of variants with three or more changes are uncertain.

B1: LINE1-full (parent)
chain: UACGUAGGUGGUUUUCCCCUGAUAGUGCUAAGGGGGCCUGGAAGUUUGGACUGGGCAGAGCUCAACACAGCGUGGCAAAGUGGCUGUGGCUAGACUGCCUCUCUGGAUUCCUCGUCACUCAGCAGGGCAUCUCUGAGAGAAAUGCC

Variants of: B1
Test: self-cleavage, relative activity (ratio to wild type); higher = more cleavage; in vitro, sequencing; the parent is a self-cleaving ribozyme
U85C U96A U100A showed a self-cleavage of 0.12.
In the case of U39G U46C U91A, the self-cleavage is reported as 1.54.
In the case of A22G U29C A65C G106U A142G, the self-cleavage is reported as 0.07.
For U9A A22G U39C U46A G54A, the self-cleavage was 0.41.
U47C A50G A65U U115C gave a self-cleavage of 0.
Variant U12A U13C A30U U62C U96C has a self-cleavage of 1.38.
In the case of U39C U109C A136G A142G, the self-cleavage is reported as 0.74.
Work on U9C U12C U14C A121U yielded a self-cleavage of 0.3.
U13C G34A U62C A136U A140U showed a self-cleavage of 0.
A24G A59G A92G gave a self-cleavage of 0.16.
In the case of U85A U134C A142G, the self-cleavage is reported as 0.19.
For U12A U81C U109A A129G U132C, the self-cleavage was 1.84.
With U14C U115A A138G the self-cleavage was 1.79.
With U47C A50G G54U A57G U96A U115A A138G A140U the self-cleavage was 0.
A31G U46A A57G showed a self-cleavage of 0.55.
For U20A U46C U87C A121U G126A, the self-cleavage was 0.39.
Variant U23A U47A U102C U134C has a self-cleavage of 1.02.
With U29A A30G U62C A121U the self-cleavage was 0.08.
With U39C A50G A69G C145A the self-cleavage was 0.
U73A U91C U119A G139U gave a self-cleavage of 0.28.
For U108A U115C A142G, the self-cleavage was 2.02.
With A6G U15A A59G the self-cleavage was 0.
C16U A67G A129G A136U showed a self-cleavage of 1.35.
Variant U9G A78G U102A has a self-cleavage of 1.05.
With U9A A77U U104C the self-cleavage was 0.37.
With U47C A57G A141U the self-cleavage was 2.52.
Variant A22G A78G A136G has a self-cleavage of 0.57.
Work on U13C U20A A136G yielded a self-cleavage of 0.67.
In the case of U5C A57C U130C, the self-cleavage is reported as 0.
U62A G83A U87G showed a self-cleavage of 0.04.
For A43U U108A A141G, the self-cleavage was 1.67.
Work on A2G C37U U73A A79G yielded a self-cleavage of 2.83.
U9A U115C U143C showed a self-cleavage of 0.77.
G41U A138G A140U showed a self-cleavage of 0.48.
For G7C A78G A79U U96C U119C, the self-cleavage was 0.84.
A64U U108C U130A gave a self-cleavage of 0.49.
With A69U G74A C76U U143C the self-cleavage was 0.05.
Work on U87A U96C C101U U115A yielded a self-cleavage of 0.09.
For U52C A59G A64C A129U, the self-cleavage was 0.
For U14C U20C U46A, the self-cleavage was 1.43.
Variant U15C C17U U39A A43U U115A has a self-cleavage of 0.39.
U15C A57G U73C gave a self-cleavage of 0.
For U29C U47A U100C U109C, the self-cleavage was 1.84.
With U14C U15C U100C U102C A129G the self-cleavage was 1.31.
G36A G40A U46C A94G A140U showed a self-cleavage of 0.09.
For A6G U62C A77G, the self-cleavage was 1.23.
Work on G55A U85C U143C yielded a self-cleavage of 0.02.
U9C U47C A64G C90G A142G gave a self-cleavage of 0.11.
U5C U87A U108C gave a self-cleavage of 0.05.
In the case of A31U U85C G114C C120A, the self-cleavage is reported as 0.13.
With U81C U112G A138U the self-cleavage was 1.53.
For U13C A138G A141G, the self-cleavage was 1.28.
U15A U29G U47C U52A C113U showed a self-cleavage of 0.88.
With U45C U87C U134A the self-cleavage was 0.
U9C U73C A79G gave a self-cleavage of 1.62.
Work on G11A G74U A79G yielded a self-cleavage of 1.01.
Variant A57U U62A A140G has a self-cleavage of 0.04.
U52C U96A U104A showed a self-cleavage of 0.09.
U15C G35U A69G gave a self-cleavage of 0.23.
In the case of A42G A78G A92G A140U, the self-cleavage is reported as 0.
Variant C19U C38U A140G has a self-cleavage of 0.75.
In the case of U14C A31U A117G A138G, the self-cleavage is reported as 0.66.
For A31U U87A U96A A124G, the self-cleavage was 0.05.
A57G G88A G114A U130C gave a self-cleavage of 0.03.
In the case of U20A U39C A65G, the self-cleavage is reported as 0.
Work on A50G U62C A124G yielded a self-cleavage of 0.34.
U13G A78G G89C gave a self-cleavage of 0.12.
Variant A22G G48U G114A has a self-cleavage of 0.57.
Variant U14C A64U A107G A140G has a self-cleavage of 1.02.
For A43G A57G U143A, the self-cleavage was 0.21.
With C3A G11U U45C the self-cleavage was 2.04.
Variant U14C A43G U52A U132A has a self-cleavage of 0.7.
In the case of A67G U87A A121G, the self-cleavage is reported as 0.
For U14C U130A C145A, the self-cleavage was 0.87.
With U85C C120U U134C the self-cleavage was 0.26.
Work on U23C U73C U109C yielded a self-cleavage of 2.3.
Variant A6U G75C U81C has a self-cleavage of 0.57.
U5A U23C U45C A65G gave a self-cleavage of 0.
A79U U96C A141G gave a self-cleavage of 0.12.
In the case of G41U U47C G48U A121G A140G, the self-cleavage is reported as 0.75.
U9C U87C A138G gave a self-cleavage of 0.25.
Work on U14C U62C U87A yielded a self-cleavage of 0.07.
With A31G G34U U104C C116U A136G the self-cleavage was 1.21.
With U9C G11U A31G G36C G58U U108C the self-cleavage was 0.13.
Work on G35C U52C U104C U132C yielded a self-cleavage of 0.92.
Work on U13C U20A A50G U143C yielded a self-cleavage of 0.9.
Work on U15C C38U A94G U115C A124G U132A A142G yielded a self-cleavage of 0.8.
In the case of A24U U46C A92U, the self-cleavage is reported as 0.67.
Variant G33A U73A C76U A107G A117G U119C has a self-cleavage of 1.16.
Variant U26C A64G A94G has a self-cleavage of 0.
U39C U96A U130C gave a self-cleavage of 0.08.
Work on U12C C56A U85C yielded a self-cleavage of 0.
Variant U9C G82A A140G has a self-cleavage of 1.77.
Variant U39C G55A U130C A136G has a self-cleavage of 0.43.
U13C U87C U134G A138C C145U showed a self-cleavage of 0.
In the case of U14C U62A A140G, the self-cleavage is reported as 0.21.
Work on A43G U85A U96C yielded a self-cleavage of 0.08.
Work on U26A A92U A124G U134C yielded a self-cleavage of 0.39.
For U9G A69G U130C, the self-cleavage was 0.94.
G41A U52A U73A A124G U132C showed a self-cleavage of 1.1.
For U14C A43G U47C A57G U62C C76U A79G A107G U108A, the self-cleavage was 0.
For U62C U102C U143C, the self-cleavage was 0.
U73C A94U U132C A138U gave a self-cleavage of 0.44.
U13C U26C A77G gave a self-cleavage of 1.67.
U13C U52A A77U A138G U143A gave a self-cleavage of 1.7.
G127U A138G A141G showed a self-cleavage of 1.04.
Work on A65G U102A U134C yielded a self-cleavage of 0.
Variant A42U A69U C113U A121G A136G has a self-cleavage of 0.
For G10A A24G A59U, the self-cleavage was 0.45.
U1A U12C U130C gave a self-cleavage of 1.67.
Variant U1C U46C A67G G88A U115C has a self-cleavage of 0.18.
With A6U U73C A121G the self-cleavage was 0.
With C98A U134C A141G the self-cleavage was 0.1.
With A50C A57U A64U A67G U109A A142G the self-cleavage was 0.07.
U15C U46A U132C showed a self-cleavage of 0.98.
In the case of U13C C63A A64G A79G, the self-cleavage is reported as 0.03.
U9C A64G C120A gave a self-cleavage of 0.25.
For G40U U73C U96A C123A A140U, the self-cleavage was 0.06.
With U45C U52C A57G the self-cleavage was 0.
With A59G U102A U112G A138G the self-cleavage was 0.57.
A6U A117G U119A A142G gave a self-cleavage of 1.15.
U14C A65G C146U gave a self-cleavage of 0.03.
U14C A77U U115A showed a self-cleavage of 0.73.
With U20C U52C U62C the self-cleavage was 0.09.
Work on G41U G48A U109C yielded a self-cleavage of 0.71.
With U14C A42G A50U U104C C113U the self-cleavage was 0.22.
With C28G A65U A117G the self-cleavage was 0.19.
U5A A43U A57G A77G A79G G97A A107G gave a self-cleavage of 0.
U20A C37U U109C U115C gave a self-cleavage of 1.7.
G32U U47A C123A U132C gave a self-cleavage of 1.22.
A30U U115C A140U gave a self-cleavage of 1.99.
G58U A124U U130C gave a self-cleavage of 0.02.
U13C A50U G54A A79U U100A C145G showed a self-cleavage of 0.11.
With U12C U29C A77U U109C the self-cleavage was 2.12.
U85C A94G U96A U143C gave a self-cleavage of 0.
U20C A69G U109C gave a self-cleavage of 0.34.
Work on U13C A67G U134A C146U yielded a self-cleavage of 0.65.
Variant G11A A79G A136U A140G has a self-cleavage of 1.1.
With A24G A42G U112C the self-cleavage was 1.15.
U15C A77U A79G gave a self-cleavage of 1.17.
Work on U9A C17A G32A U119C A140U yielded a self-cleavage of 0.79.
In the case of U26A A69G G83C, the self-cleavage is reported as 0.15.
G8C U15C A31U U87A gave a self-cleavage of 0.32.
Work on A77G A117U A138G yielded a self-cleavage of 0.52.
Variant U1C G32A C51U A69G U85C U109A has a self-cleavage of 0.97.
In the case of U14A U62C U87A U115A A138G A142G, the self-cleavage is reported as 1.03.
With U20C A121U A136G the self-cleavage was 1.22.
G106A A141G A142U gave a self-cleavage of 1.1.
U87A A136G A142G gave a self-cleavage of 0.05.
U62C U112G A124G showed a self-cleavage of 0.
Work on A65G C76U U91C U109C yielded a self-cleavage of 0.
A94G U119A A121G showed a self-cleavage of 0.61.
U13C G82A A129C showed a self-cleavage of 1.73.
A64G U108G A140G showed a self-cleavage of 0.26.
In the case of U39A U45C U81A, the self-cleavage is reported as 2.38.
Work on C71U A77U U119G yielded a self-cleavage of 2.47.
With U26A G35A U130C the self-cleavage was 1.08.
U26C U112C C113U showed a self-cleavage of 0.31.
U47A U100C U132C showed a self-cleavage of 1.99.
In the case of A79G C103A U119A, the self-cleavage is reported as 1.69.
With A24U G54U U112A the self-cleavage was 1.12.
U102C U119C A140U showed a self-cleavage of 1.62.
Work on C3U U12A U73C G97A A136C yielded a self-cleavage of 0.15.
In the case of U12G U26C A65G U87A A129G, the self-cleavage is reported as 0.
With U12G U62A U109C A141G the self-cleavage was 0.
A43G U81C C95A U134C A141G showed a self-cleavage of 0.08.
Work on U9C A30G U47A A138G yielded a self-cleavage of 0.92.
